Data published in PMC4336329 (PLoS ONE, 2015).
Among all 310,000 compounds or so, about 2,200 (0.71%) showed an effect of 50% or more. Effects have a minus sign here. Some of the results follow.

Biological target: human ether-à-go-go-related gene (hERG) potassium channel (human, UniProt Q12809)
Test: primary screen, population patch clamp on CHO cells stably expressing hERG

human ether-à-go-go-related gene (hERG) potassium channel, sequence (Q12809 whole entry, looked up): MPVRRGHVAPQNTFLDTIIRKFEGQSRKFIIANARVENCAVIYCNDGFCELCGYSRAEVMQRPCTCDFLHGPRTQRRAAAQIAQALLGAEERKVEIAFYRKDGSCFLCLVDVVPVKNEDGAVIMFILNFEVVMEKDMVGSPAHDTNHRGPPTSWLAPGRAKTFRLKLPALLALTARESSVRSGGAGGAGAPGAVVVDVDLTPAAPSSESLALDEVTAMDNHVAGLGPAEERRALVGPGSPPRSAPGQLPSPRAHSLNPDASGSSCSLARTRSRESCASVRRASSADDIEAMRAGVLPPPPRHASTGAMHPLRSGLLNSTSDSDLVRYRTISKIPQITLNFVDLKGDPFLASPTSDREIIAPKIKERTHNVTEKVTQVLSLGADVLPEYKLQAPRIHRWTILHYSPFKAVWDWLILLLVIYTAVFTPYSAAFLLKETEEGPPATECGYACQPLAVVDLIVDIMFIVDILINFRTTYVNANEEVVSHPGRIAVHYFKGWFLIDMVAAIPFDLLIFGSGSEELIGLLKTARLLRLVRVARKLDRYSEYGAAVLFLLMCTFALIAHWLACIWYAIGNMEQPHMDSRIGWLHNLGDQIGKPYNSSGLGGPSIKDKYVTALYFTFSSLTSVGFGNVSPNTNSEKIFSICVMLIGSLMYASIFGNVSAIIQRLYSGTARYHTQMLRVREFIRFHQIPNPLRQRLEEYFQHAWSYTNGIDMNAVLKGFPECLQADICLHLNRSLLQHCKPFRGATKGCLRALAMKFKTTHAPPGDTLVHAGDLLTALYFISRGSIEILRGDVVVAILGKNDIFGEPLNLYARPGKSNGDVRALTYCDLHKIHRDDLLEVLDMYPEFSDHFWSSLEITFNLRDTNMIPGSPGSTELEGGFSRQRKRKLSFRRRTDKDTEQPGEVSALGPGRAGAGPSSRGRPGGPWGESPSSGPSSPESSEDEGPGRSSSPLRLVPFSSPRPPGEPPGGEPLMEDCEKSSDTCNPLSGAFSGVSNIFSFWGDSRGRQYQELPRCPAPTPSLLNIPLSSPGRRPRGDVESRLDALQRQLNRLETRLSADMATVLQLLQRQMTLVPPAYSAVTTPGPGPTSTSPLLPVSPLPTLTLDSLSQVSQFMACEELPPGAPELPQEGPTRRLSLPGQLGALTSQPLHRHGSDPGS

SMILES	hERG current change (%, negative = inhibition) at 1uM
Cc1oc(-c2ccccc2)cc1C(=O)Nc1ccc2ccccc2c1	10.9%
O=C(c1ccc2c3c(cccc13)CC2)C1CCCN(Cc2ccc(OCCO)cc2)C1 (stereo not drawn)	10.8%
Nc1ccc(Oc2ccc(F)cc2)nc1	4.1%
O=C(O)c1ccccc1-c1ccccc1C(=O)Nc1ccc(F)cc1	5.83%
CCOC(=O)c1[nH]c(C)c(/C(O)=C2\C(=O)C(=O)N(CCN3CCOCC3)C2c2cccs2)c1C (stereo not drawn)	5.83%
CC(=O)N1CCOc2ccc(S(=O)(=O)N3CCC(C(=O)Nc4ccccc4F)CC3)cc21	12%
O=C(COc1ccc(Br)cc1Cl)NC(=S)N1CCc2ccccc21	8.41%
Cc1c(CCC(=O)O)c(=O)oc2cc3occ(-c4ccc(Br)cc4)c3cc12	16.9%
O=C(NCc1ccc(F)cc1)C1CCCN(C(=O)Nc2ccc(F)cc2)C1 (stereo not drawn)	4.98%
COCCn1nc2cc(C(=O)NCC34CC5CC(CC(C5)C3)C4)ccc2c1OC	5.25%
COc1ccc(/C=N/NS(C)(=O)=O)c(OC)c1	9.05%
CC(C)(C)OC(=O)NCCc1nnc(SCc2c(Cl)cccc2Cl)o1	9.58%
CCc1cc2c(SCC(=O)N(CC)c3c(N)n(Cc4ccccc4)c(=O)[nH]c3=O)ncnc2s1	7.35%
COc1ccc(C(=O)NNC(=O)C(=O)/C=C(\O)c2ccc(C)cc2)cc1	15.5%
COCC(C)NC(=O)c1ccc2c(c1)S(=O)(=O)c1ccccc1C2=O (stereo not drawn)	13.4%
COc1ccc(OCC(=O)NCCNC(=O)c2ccccn2)cc1	4.21%
Cn1c(=O)cc(OCCCC(=O)N2CCCCC2)c2ccccc21	12.4%
CCCOc1ccc(C(=O)NC(=S)Nc2nc3ccccc3s2)cc1	2.37%
O=S(=O)(c1ccccc1)C(/C=N\O)/C=C/c1ccccc1 (stereo not drawn)	13.4%
COc1ccc(N2CCN(C(=S)Nc3cc(C)ccc3C)CC2)cc1	10.1%
Cc1nn(C(C)(C)C)c(NC(=O)c2ccccc2)c1C#N	7.9%
CC(C)(CO)CNC(=O)CCc1nnc(-c2ccc(-c3ccccc3)cc2)o1	15.4%

SMILES	hERG current change (%, negative = inhibition) at 1uM
CNC(=S)N/N=C/c1c(C(=O)OC)cnn1-c1ccc(F)cc1F	8.46%
COc1ccc(-c2[nH]c3ccccc3c2SCCNC(=O)c2ccccc2)cc1	12.9%
O=C(N/N=C/c1ccc(N2CCOCC2)cc1)c1ccccc1OCCOc1ccccc1	-5.24%
COCCNC(=O)c1c[nH]c2ccc(S(=O)(=O)Nc3ccccc3F)cc2c1=O	9.25%
CN1CCN(C(CNC(=O)Nc2ccc(Cl)cc2)c2ccc(F)cc2)CC1 (stereo not drawn)	-16.4%
Cc1nc2sccn2c(=O)c1S(=O)(=O)NCc1ccccc1Cl	9.84%
COc1ccc(-n2cc(CNC3CCOCC3)c(-c3cccc(F)c3)n2)cc1	-1.28%
O=[N+]([O-])c1ccc(S(=O)(=O)NCCN2CCOCC2)cc1	12.6%
N#Cc1ccc(NC(=O)c2sc3cc(C(F)(F)F)cnc3c2-c2cccs2)cc1	0.671%
O=C(N/N=C/C=C/c1ccc([N+](=O)[O-])cc1)c1cccs1	7.54%
CCOC(=O)Cn1c(=O)c2c(nc3n2CCCN3Cc2ccccc2)n(C)c1=O	-14.1%
CS(=O)(=O)Nc1nc2n(n1)C(c1ccc(F)cc1)CC(c1ccccc1)N2 (stereo not drawn)	2.53%
CCC(C)c1ccc(Nc2ncccc2C#N)cc1 (stereo not drawn)	8.1%
CCN(CC(=O)Nc1ccccc1SC)Cc1nc2ccccc2c(=O)[nH]1	2.25%
CCCC(=O)Nc1ccc2c(c1)nc(CCNC(=O)c1ccco1)n2C	12%
COc1ccc(NC(=O)COC(=O)CCOc2ccccc2C)cc1Cl	-2.04%
Nc1nnc(SCC(=O)c2ccc3c(c2)NC(=O)CO3)s1	14.5%
N#Cc1cc(C(=O)Cc2ccccc2)c[nH]1	12.7%
CCN1C(=O)/C(=C\N2CCOCC2)SC1=S	8.51%
Cc1cccn2c(=O)c3cc(C(=O)NC4CCS(=O)(=O)C4)sc3nc12 (stereo not drawn)	12.7%
COc1ccc(S(=O)(=O)N(C)CC(=O)NCCN2CCOCC2)cc1	12.1%
Cc1cc(C)n2nc(SCc3nnc(SCCCCl)o3)nc2n1	5.79%

SMILES	hERG current change (%, negative = inhibition) at 1uM
COC(=O)c1sc(NC(=O)c2ccncc2)nc1C	20.5%
O=C(Nc1cc(C(F)(F)F)ccc1-n1cncn1)c1ccc(-c2ccccc2)cc1	8.67%
CC(C)(C)c1ccc(CN(Cc2ccccc2)C(c2ccccn2)c2nnnn2C(C)(C)C)cc1 (stereo not drawn)	6.17%
CC(C)(C)C1=NN=C2c3ccccc3C(=O)C21 (stereo not drawn)	10.4%
CNC(=O)c1[nH]cnc1C(=O)NCC(=O)OCc1ccccc1	14.1%
COc1ccc(C2CC(c3ccccc3)=NN2C(=O)COC(=O)c2cccc(S(=O)(=O)N(C)C)c2)cc1 (stereo not drawn)	-2.73%
CCCn1c(SC2C(=O)CC(C)(C)CC2=O)nc2c1c(=O)n(C)c(=O)n2C	15.4%
O=C(CCCCCNC(=O)c1ccccc1)N=Nc1c(O)[nH]c2c(Br)cc(Br)cc12	5.16%
CC1(C(=O)NNC(=S)NCc2ccco2)CC1(Cl)Cl (stereo not drawn)	17.5%
CCOc1ccc(NC(=O)CSc2nc3ccccc3c(=O)n2CCCC(=O)NCC2CCCO2)cc1 (stereo not drawn)	15.5%
CC1CCCC(NC(=O)CN(C)CC(=O)Nc2cccc(F)c2)C1C (stereo not drawn)	11.9%
O=C(CNC(=O)/C=C/c1ccccc1)N=Nc1c(O)n(Cc2ccccc2)c2ccccc12	-11.6%
O=C(Nc1ccc(N2CCCC2)c(Cl)c1)c1cccnc1	2.49%
Cc1ccc(CCNC(=O)c2cc(-c3ccncc3)nc3ccccc23)cc1	-1.05%
COC(=O)c1c(C)[nH]c(C(=O)NCc2ccco2)c1C	4.36%
Cc1ccc(C(C)C)c(OCCCNCc2cccnc2)c1.Cl	-1.62%
CCOCCCNC(=S)N(Cc1ccco1)Cc1cc2cc3c(cc2[nH]c1=O)OCCO3	9.38%
COc1ccc(OCc2ccc(-c3nc4ccccc4c(=O)n3N)o2)cc1	-3.45%
CCOC(=O)N1CCN(C(=O)COC(=O)C2CCN(S(=O)(=O)c3c(C)c(C)cc(C)c3C)CC2)CC1	-7.18%
COc1ccc(CCNC(=O)c2ccc(CS(=O)(=O)c3ccc(Cl)cc3)o2)cc1OC	-4.68%
COCCN(C(=O)C1CCC1)c1nnc(-c2cccnc2)s1	11.2%
Cc1ccccc1C(=O)Nc1ccccc1C(=O)N1CCC(C)CC1	11.7%

SMILES	hERG current change (%, negative = inhibition) at 1uM
CN(c1ccccc1)S(=O)(=O)c1cccc(NC(=O)CC(C)(C)C)c1	4.77%
COc1ccc2oc(C(=O)NCCc3ccccc3)c(C)c2c1	14.8%
Cc1cccc(N2CCN(Cc3nc(-c4cccc(Cl)c4)oc3C)CC2)n1	-7.13%
COc1cc2ncc(S(=O)(=O)c3ccccc3)c(N3CCCC(C)C3)c2cc1OC (stereo not drawn)	10.7%
O=C(NC(=S)NCCN1CCOCC1)c1ccccc1	4.85%
COc1ccc(CC(=O)Nc2cccc(/C(C)=N/NC(=O)c3cccc([N+](=O)[O-])c3)c2)cc1	-0.187%
COc1ccc(C(=O)NNC(=O)c2ccc3ccccc3c2O)cc1	18.1%
COc1ccc(NC(=O)C(C)SCc2ccccc2)cc1OC (stereo not drawn)	16.7%
COC(=O)c1sc2nc(SCC(=O)N(C)c3ccccc3)n(N)c(=O)c2c1C	15.6%
Cc1cccc(N2C(=O)CC(Sc3nc(C)cc(C)n3)C2=O)c1 (stereo not drawn)	11.8%
CN(c1ccccc1)c1nc(N)c([N+](=O)[O-])c(Nc2ccccc2)n1	7.77%
CCCNC(=O)c1ccc2c(=O)c(O)c(-c3cccc(Br)c3)[nH]c2c1	14.8%
CS(=O)(=O)N(CC(=O)N1CCN(Cc2ccccc2)CC1)C1CCCCC1	-5.43%
O=c1[nH]c2ccc(Br)cc2c(-c2ccccc2)c1N1CCOCC1	5.08%
CO/C=C/C#CC1(O)CCN(C)CC1	4.14%
COc1cc(O)c(C(CC(=O)N2CCN(c3ccccc3)CC2)c2ccc3c(c2)OCO3)c(OC)c1 (stereo not drawn)	17.6%
COc1ccc(CC(=O)OCC(=O)Nc2ccc(N3CCOCC3)cc2)cc1	-3.77%
COc1ccccc1C1=NOC(COc2ccc3c(C)cc(=O)oc3c2)C1 (stereo not drawn)	15.9%
CCOC(=O)CNS(=O)(=O)Cc1ccccc1	11.1%
CCCCCN(C(=O)CCC(=O)OCc1ccc(C(C)C)cc1)c1c(N)n(CCCC)c(=O)[nH]c1=O	-0.71%
O=C(CCCCCCCC(=O)NNC(=O)Nc1ccccc1)NNC(=O)Nc1ccccc1	14.9%
